Measurements: US20160291037A1

What was measured:
[1] = biological target: oligomeric beta-amyloid (human) (UniProt P05067); experiment: phage-based capture ELISA; control (ND) sera; normalized 0-1; outliers present
[2] = biological target: oligomeric beta-amyloid (human) (UniProt P05067); experiment: phage-based capture ELISA; control (ND) sera; normalized 0-1; outliers removed
[3] = biological target: oligomeric beta-amyloid (human) (UniProt P05067); experiment: phage-based capture ELISA; TBI sera 6 hrs post-injury; normalized 0-1; outliers present
[4] = biological target: oligomeric beta-amyloid (human) (UniProt P05067); experiment: phage-based capture ELISA; TBI sera 6 hrs post-injury; normalized 0-1; outliers removed
[5] = biological target: oligomeric beta-amyloid (human) (UniProt P05067); experiment: phage-based capture ELISA; TBI sera 24 hrs post-injury; normalized 0-1; outliers present
[6] = biological target: oligomeric beta-amyloid (human) (UniProt P05067); experiment: phage-based capture ELISA; TBI sera 5 days post-injury; normalized 0-1; outliers present
[7] = biological target: oligomeric beta-amyloid (human) (UniProt P05067); experiment: phage-based capture ELISA; TBI sera 24 hrs post-injury; normalized 0-1; outliers removed
[8] = biological target: oligomeric beta-amyloid (human) (UniProt P05067); experiment: phage-based capture ELISA; TBI sera 5 days post-injury; normalized 0-1; outliers removed
[9] = biological target: oligomeric beta-amyloid (human) (UniProt P05067); experiment: phage-based capture ELISA; TBI sera 10 days post-injury; normalized 0-1; outliers present
[10] = biological target: oligomeric beta-amyloid (human) (UniProt P05067); experiment: phage-based capture ELISA; TBI sera 10 days post-injury; normalized 0-1; outliers removed

normalized binding ratio (heat map) [1]: 0.105 | normalized binding ratio (heat map) [2]: 0.105
B1: C6T anti-oligomeric beta-amyloid scFv (nanobody) (scFv)
scFv: [sequence of about 100 residues not given]SYGSVKISCFDYWGQSTLVTVSSGGGGSGGGGSGGGGSEIVLTQSPDSLAVSLGERATINCKSSQSVLYNSNNKNYLAWYQQKPGQSPELLIYWASTRESGVPDRFSGSGSGTEFTLTISSLQAEDVAVYYCQQFYSTPPTFGQGTKLEIKRAAAHHHHHHGAAEQKLISEEDLNGAA
normalized binding ratio (heat map) [3]: 0.176 | normalized binding ratio (heat map) [4]: 0.176 | normalized binding ratio (heat map) [5]: 0.153 | normalized binding ratio (heat map) [6]: 0.24 | normalized binding ratio (heat map) [7]: 0.153 | normalized binding ratio (heat map) [8]: 0.24 | normalized binding ratio (heat map) [9]: 0.246 | normalized binding ratio (heat map) [10]: 0.246
